Data on 19 molecules can be found in the supplement of paper PMC12632987.

Whole data set: some 1,800 sequences, median “median log2 fold change of GCK-ALFA target abundance (FLAG IP / Myc IP barcode read proportion)” near 0.14, cut for the lowest 2% near -0.84. This is one part of the list.

T1: TRAF2, Q12933
T1 chain: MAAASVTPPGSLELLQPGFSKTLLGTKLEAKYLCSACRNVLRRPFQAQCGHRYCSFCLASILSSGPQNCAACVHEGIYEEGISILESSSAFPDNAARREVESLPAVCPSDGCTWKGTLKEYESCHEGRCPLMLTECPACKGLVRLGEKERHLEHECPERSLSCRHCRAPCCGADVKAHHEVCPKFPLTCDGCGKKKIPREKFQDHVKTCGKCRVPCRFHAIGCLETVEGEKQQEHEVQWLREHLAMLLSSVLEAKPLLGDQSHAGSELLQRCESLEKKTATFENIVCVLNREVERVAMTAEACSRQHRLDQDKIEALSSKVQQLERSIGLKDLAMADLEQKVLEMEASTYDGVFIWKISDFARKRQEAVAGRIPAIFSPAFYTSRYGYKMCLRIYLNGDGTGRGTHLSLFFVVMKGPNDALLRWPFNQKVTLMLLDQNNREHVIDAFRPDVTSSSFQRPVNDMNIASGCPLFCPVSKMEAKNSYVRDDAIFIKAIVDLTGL

B1: traf2_out_11_169_861 (protein)
chain: EEKEKNRKLIDFALEVEDEAKEKLKKFALELAKEKGLDVEEVKKIFEENKNSSLSAVASALIEYFKAKGEEDAAAKILEKYDELKEEINKKVSAKMKELE
B2: traf2_out_11_169_886 (protein)
chain: EEKEKNRKFNDFALEKNDEAKEKLLKFALELAKEKGLNVEEVKKIYEKNKNKSLSYLASELIKYFKEKGEEDAAEKILKKHEELQEEINKEVTAKMKELE
B3: traf2_out_18_167_1865 (protein)
chain: SEELKKELEEASDRLVELSEIRRTMRTALELLKESREKALAHVKEALKKHPDSEVLKAALEAFETLSDEEIRAFLEETAERLQKEMNKEYKKYEELRKKL
B4: traf2_out_20_3_2228 (protein)
chain: EELEKEAEKELEKLLKQLKAIEARADPETAARLKALIKKLKEAKELDPVDRLVVVSEVRQELLRLRQEAEAAGDAELAAALAKAAELAQRLAQLLYKIIE
B5: traf2_out_13_95_1123 (protein)
chain: SAEVAAKIMAIADKMEEEILKKLEELLKIAKEKGIAEKEIQAIIDKAKHGTVNQVIHDLKELSKKYPELKEEFDKTIKELEAIRSKAGKEVAKILKEEEE
B6: traf2_out_14_149_1251 (protein)
chain: SATEEKKQALKEAAKLMDEIIAILQKALEAGSTEVDKEKIRELLEKAREILKKQGFVLGHLLAMEEMLETTKNWTLEDIERFLAEAKRARESLEVLAEML
B7: traf2_out_3_89_2295 (protein)
chain: AAARAARLAEARANADRYVAGFEKSARWVAKQMLADGHSLETLEGVLNAARSALVAELRESLAERGLSPEDIAALVADFEARLNAIVAAVVAEAKARRAA
B8: traf2_out_11_155_718 (protein)
chain: SKKLELNQELVNEIMEIADEADRRLEELIEEVEKEDPEVARQLRALLEENKDKGITTRLLGAARLLREAGLEEYAERVLELLEETQKKMNELYKEYEKKL
B9: traf2_out_17_162_1516 (protein)
chain: SELEERLEELEEELEELKKKLKEFEEKLKDLEKMSKEELTDLLVEVSEARREARRLAEELRRLKEEIGEERAQELIDEAEEIAERLQRIANKIYKELEKK
B10: traf2_out_13_95_1201 (protein)
chain: EEEKTKKIREVTNAIADELLAHADATAAAVEAATGDAAARDRVLAALRGHGVSAAIHVLRELAAADPEHAATYLAAAADLEAARREAGKRVAEKLKEIEE
B11: traf2_out_13_95_1124 (protein)
chain: SAEVAKKIMEIADEMEARRLALLEALLAKAKAAGKAEAEVQAILDLAEHGTIQEVIHALRELAKKYPEMKAEFDAAIAELEAIRREAGREVAKILKEEEE
B12: traf2_out_20_3_2183 (protein)
chain: EELRRELEEELERALELLRRAAELADPETAERLRELAERLRRSRELSPEDQLVELSEIRREVLRLAEEARAEGREELARVLEEAAEALNRAMNLVYQIIE
B13: traf2_out_17_162_1548 (protein)
chain: GELEERLKELEEELEELERRAEELESLLPELPKLSKEELTDLLVEASEARRRARRLAEEIEKLKEEIGEERAEELRERAEEIAERLQRIANAIYKELEKK
B14: traf2_out_5_63_2351 (protein)
chain: SERAELTELARRADAAVRAAIAAAKAGREAELEAILDEMVADPELARTALGILKGEARYYKLLGDKPEEAAIAAELAARLEAKAAERAAAEAAAAAAAAA
B15: traf2_out_20_3_2265 (protein)
chain: EELMKKLEEELEKAEKLLKEIEPELPEEKAKELKELLEKAKKALETDKTDALVYLSELRRKTLELAEEARAAGDEELAAKLEELADEAQRAMQLLYKIIE
B16: traf2_out_9_17_2618 (protein)
chain: AAAAAAERAALLEVTDEILEELVARGLITEEQAAAIREKVRAAIEAGKSPEEVRALFLGSIASILLQDDGLSVQEAQKVVGEVYRRWRELYAARRAAAAA
B17: traf2_out_17_178_1720 (protein)
chain: SKEEYRKKISELTDKLIDLAEAAAARLLALARAEGTLSPEELAALEAARRRGSPNDTLALMRRVAPRLRSAAEAEALLADFEAQSKALAKEIAELYEKYE
B18: traf2_out_18_3_1944 (protein)
chain: AEEEIKKYTEELDEIFDEHAAWVLARAEEAAAADPRAAPLLERVKALLAQGHLGSSLTNTLVDGLRALGRTEEAAEVEEKASEFFKKASEAIDKIEEARK
B19: traf2_out_6_166_2472 (protein)
chain: SEELRKRVDEIIKKLGEYEPEVVIEAFEILAEKRSDRRALLARQLASGVRQGKKAGLKTETIISAFVDGMIALGVPIEEILELLEEVLEIAEKLAEERKK

The target of this assay is T1, TRAF2, Q12933. Kind of assay: median log2 fold change of GCK-ALFA target abundance (FLAG IP / Myc IP barcode read proportion) (log2 ratio); each designed protein is fused to an ALFA-tag nanobody in HEK293 cells to bring the named protein to FLAG-tagged glucokinase (GCK); Myc marks an untargeted standard; higher = target protein stabilised (more abundant). Particulars: target protein: 3xFLAG-MCP-GCK-ALFA reporter; HEK293 landing pad (RPLP). Summed up:
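Binders fused to an ALFA nanobody were recombined as a library into HEK293 landing-pad cells, which were induced with 2 μg mL^−1 doxycycline and then transfected to express a FLAG-tagged target and a Myc-tagged standard. After 48 h, circular RNA barcodes recovered by anti-FLAG and anti-Myc immunoprecipitation of lysates were reverse transcribed, amplified and sequenced. Each binder's target abundance is the median log2 ratio of FLAG to Myc barcode read proportions, from barcodes present at ≥10^−7 in both replicates, binders carrying ≥3 barcodes per replicate, a 10^−6 pseudocount and pooled replicates.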
As to B1, the “median log2 fold change” value was -0.428.
With B2, the “median log2 fold change” value turned out to be 0.121.
B3: the “median log2 fold change” value was 0.19.
With B4, the “median log2 fold change” value was 0.197.
Turning to B5, the “median log2 fold change” value was -0.0767.
Regarding B6, the “median log2 fold change” value worked out at 0.231.
The same measure for B7: -0.494.
B8: the “median log2 fold change” value is -0.0489.
Take B9: the “median log2 fold change” value is 0.107.
For the molecule B10, the “median log2 fold change” value came to 0.0404.
With B11, the “median log2 fold change” value is 0.0332.
Consider B12, for which the “median log2 fold change” value came to 0.23.
In the case of B13, the “median log2 fold change” value was determined as 0.22.
Under B14 stands -0.305; under B15, 0.516.
Regarding B16, the “median log2 fold change” value is -0.0669.
Turning to B17, the “median log2 fold change” value came to 0.2.
Take B18: the “median log2 fold change” value worked out at 0.132.
With B19, the “median log2 fold change” value was -0.148.
